Reference: article PMC4336329 (PLoS ONE, 2015)
Out of some 310,000 compounds screened, about 2,200 (0.71%) showed an effect of 50% or more. Effects have a minus sign here. The list shows a part of the results.

These compounds were tested against human ether-à-go-go-related gene (hERG) potassium channel (human, UniProt Q12809) (assay: primary screen, population patch clamp on CHO cells stably expressing hERG).
Chain of human ether-à-go-go-related gene (hERG) potassium channel (Q12809 whole entry, looked up): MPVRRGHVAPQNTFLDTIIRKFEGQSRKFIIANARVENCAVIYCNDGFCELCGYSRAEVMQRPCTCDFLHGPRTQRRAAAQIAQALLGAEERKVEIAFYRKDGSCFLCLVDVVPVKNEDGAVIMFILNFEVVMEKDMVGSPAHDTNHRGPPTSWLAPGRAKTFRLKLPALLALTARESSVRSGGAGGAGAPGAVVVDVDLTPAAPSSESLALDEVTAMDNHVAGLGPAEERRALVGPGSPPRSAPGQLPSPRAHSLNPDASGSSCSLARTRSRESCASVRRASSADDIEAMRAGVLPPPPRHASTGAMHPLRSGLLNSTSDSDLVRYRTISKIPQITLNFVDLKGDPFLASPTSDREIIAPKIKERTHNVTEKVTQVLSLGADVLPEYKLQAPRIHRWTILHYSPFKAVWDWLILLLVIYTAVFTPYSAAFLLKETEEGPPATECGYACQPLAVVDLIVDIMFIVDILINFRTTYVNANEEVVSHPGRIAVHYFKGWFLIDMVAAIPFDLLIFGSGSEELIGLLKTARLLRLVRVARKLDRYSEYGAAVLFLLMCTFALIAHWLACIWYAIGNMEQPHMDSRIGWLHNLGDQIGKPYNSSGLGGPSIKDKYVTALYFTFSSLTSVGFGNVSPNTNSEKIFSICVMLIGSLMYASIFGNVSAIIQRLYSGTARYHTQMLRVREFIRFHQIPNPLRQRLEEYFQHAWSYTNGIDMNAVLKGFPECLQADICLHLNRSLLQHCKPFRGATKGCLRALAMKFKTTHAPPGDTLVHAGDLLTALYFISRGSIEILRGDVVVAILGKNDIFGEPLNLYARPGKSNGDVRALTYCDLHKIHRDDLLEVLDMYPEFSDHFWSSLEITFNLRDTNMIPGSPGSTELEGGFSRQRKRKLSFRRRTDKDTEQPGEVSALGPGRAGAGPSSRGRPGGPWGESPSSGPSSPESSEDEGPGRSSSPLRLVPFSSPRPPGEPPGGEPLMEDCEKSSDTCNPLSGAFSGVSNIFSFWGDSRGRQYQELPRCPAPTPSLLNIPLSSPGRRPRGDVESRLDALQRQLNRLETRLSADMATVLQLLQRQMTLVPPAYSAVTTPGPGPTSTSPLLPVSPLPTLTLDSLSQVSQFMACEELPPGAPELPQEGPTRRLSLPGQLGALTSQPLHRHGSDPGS

SMILES	hERG current change (%, negative = inhibition) at 1uM [%]
O=C(Cc1ccccc1)NCC(=O)OCC(=O)c1cccs1	-1.37
Br.COc1c2c(cc3c1OCO3)CCN(C)C2	7.16
CC(O)/C=C/C1OC(=O)CC1Nc1ccc(C=O)cc1 (centres unmarked)	4.57
OC1C2CN3CCN(C2)CC1(Cc1ccccc1)C3 (centres unmarked)	4.69
CN1CCN(NS(=O)(=O)c2ccc(Cl)s2)CC1	14.7
O=C(NCc1ccco1)C(c1ccccc1)N(C(=O)Cc1cccs1)c1ccccc1F (centres unmarked)	7.85
O=C(COC(=O)C1CC2CCCC(C1)C2=O)NNC(=O)c1ccccc1F (centres unmarked)	14.8
CC(Cc1cccnc1)NC(=O)c1cc(COc2ccc(F)cc2F)on1 (centres unmarked)	7.52
O=C(Cn1cc([N+](=O)[O-])cn1)NCc1cc2ccccc2[nH]1	-2.9
Cl.O=C(CC(Nc1ccc(F)cc1)c1ccccc1)c1ccccc1 (centres unmarked)	5.51
O=C(Cn1cc([N+](=O)[O-])cn1)NCC1CCCO1 (centres unmarked)	15.1
CC(C)c1ccc(C2(C)NC(=O)N(CC(=O)NCC3COc4ccccc4O3)C2=O)cc1 (centres unmarked)	-2.67
Cc1cccc(N(C(=O)CNC(=O)c2ccco2)C(C(=O)NC2CCCC2)c2cccnc2)c1C (centres unmarked)	14.2
O=C(O)c1cn(CCOc2ccccc2Cl)c2ccccc12	17.7
CCC(C)N(C(=O)CSc1ncnc2sccc12)C1CCS(=O)(=O)C1 (centres unmarked)	6.08
Cc1cccc(N2CCN(C(=O)c3ccc(-n4cncn4)c([N+](=O)[O-])c3)CC2)c1C	-7.83
O=c1oc2ccccc2n1Cc1cccc(F)c1	7.2
Cc1cc(C)nc(SCCC(=O)Nc2ccccc2Cl)n1	15.8
NC(=O)CC(NC(=O)Cc1ccc(Br)cc1)c1ccc(NCc2ccc(F)cc2)c([N+](=O)[O-])c1 (centres unmarked)	7.17
CCn1c(SC)nnc1-c1nnc(SC)n1CC	3.59
COc1cc(C2(c3ccc(O)c(OC)c3)C(=O)N(C)c3ccc(Br)cc32)ccc1O	-12.7
Oc1ccc(Cl)cc1-c1cc(-c2ccccc2Cl)[nH]n1	12.3

SMILES	hERG current change (%, negative = inhibition) at 1uM [%]
CCc1ccccc1NC(=O)N[C@@H](C)C(=O)OC	4.52
COc1ccc(N2C3=C(CC4=C2CC(C)(C)CC4=O)C(=O)CC(C)(C)C3)cc1	10.9
CCOC(=O)Nc1sc(C)c(C)c1C(N)=O	13.4
O=C(Nc1ccc([N+](=O)[O-])cn1)c1ccc2c(c1)OCO2	24.5
COC(=O)CN(c1ccc(C)c(Cl)c1)S(C)(=O)=O	11.7
CC(C)Sc1nnc(NC(=O)CCc2ccccc2)s1	2.16
COc1cc(/C=C/c2cc(C(=O)O)c3ccccc3n2)cc(OC)c1O	11.6
COc1ccc(C(=O)NCC(=O)N/N=C/c2cn[nH]c2-c2ccccc2)cc1	6.32
O=C(O)CCc1ccc(-c2ccccc2)n1NC(=O)c1cccs1	23.7
O=C(CSc1nnc(-c2ccc3c(c2)OCO3)n1-c1ccccc1)c1ccc(Cl)cc1	12.4
COc1cccc(NC(=O)C23CCC(C)(C(=O)O2)C3(C)C)c1 (centres unmarked)	4.01
COc1ccc(CCNC(=O)/C=C/c2cc(OC)c(OC)c(OC)c2)cc1OC	4.08
COc1cc(CNC(=O)C2CC2)ccc1OCc1ccccc1	3.28
COc1cccc(/C=C2/NC(=O)NC2=O)c1OCC(=O)Nc1ccccc1	7.2
CCCCN(CC)c1nc(-c2ccncc2)nc2ccccc12	7.37
Cc1ccc(C2=[N+]([O-])C(C)N(O)C2(C)C)o1 (centres unmarked)	1.98
CN1C(=O)C(=Cc2cc([N+](=O)[O-])ccc2N2CCCCC2)C(=O)N(C)C1=O	10.8
O=C(COC(=O)CCc1nc2ccccc2c(=O)[nH]1)Nc1ccccc1OC(F)F	24.2
CCOc1ccc(S(=O)(=O)NCCC(=O)NCCc2ccc(OCC)c(OCC)c2)cc1	18.2
CC(c1ccccc1)C1CC(=O)N(Cc2ccco2)C1=O (centres unmarked)	21.3
COc1cc(C(=O)Nc2nc(OC)c(-c3ccccc3)c(OC)n2)cc(OC)c1OC	6.73
CC1=C(C(=O)N(C)C)C(c2cccs2)NC(=O)N1 (centres unmarked)	14.6
